# Values joined by “and” are separate entries in the source; they are usually repeats but may differ in a detail not shown here. Equal entries are not always repeated. Inconclusive means that the source gave no clear call. Such entries were picked first, then a sample of the others. For some assays here: Where the call is inconclusive, the potency comes from a doubtful curve fit. A structure can be active in one record and inactive in another. Active and inactive are the calls of the source. Calls come from the whole dose curve; as a rule, active = well fitted curve in the direction sought with a large enough effect; inconclusive = small, poorly fitted or top-dose-only effect, or another doubt; inactive = no such curve, though single readings can be large; an effect the other way counts as inactive or inconclusive.
# Tests used:
# HEK293 = assay: Cytotoxic Profiling of Annotated Libraries Using Quantitative High-Throughput Screening (AID 1296008); conditions: Five cell lines viability, CellTiter-Glo ATP luminescence, 48-72 h; max response: stronger effect = lower value; note: nearly all actives have a fitted effect of over 60% in size
# Summary of the method: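 Cells exposed to compounds for 48 or 72 hr at 37 degrees Celsius. Viability read as ATP-coupled luminescence with CellTiter-Glo after 10 min at room temperature.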
# MCC-26 = assay: qHTS assay to identify novel small-molecules to repurpose for Merkel cell carcinoma treatment (AID 1296009); conditions: MCC and control cell lines, CellTiter-Glo viability, 72 h; activity change, negative = cytotoxicity: at 46 µM (top of the series); note: nearly all actives have a fitted effect of over 60% in size
# Summary of the method: (§1)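 Cells were incubated with compound for 72 hr at 37 degree celsius before CellTiter-Glo addition. Luminescence was normalized with no-cell wells as full cytotoxicity and DMSO as baseline.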
# CASKI = assay: Primary qHTS to identify gynecologic anti-cancer compounds using libraries of approved drugs and bioactive compounds (AID 1345084); conditions: Gynecologic cancer cell panel viability, ATPlite luminescence, 48 h; series mostly up to 57.5 µM; note: nearly all actives have a fitted effect of over 55% in size
# Summary of the method: (§2)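 Five-concentration response, 48 h; readout is ATP-driven luciferase luminescence.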
# SKOV3 = assay: as above; conditions: Gynecologic cancer cell panel viability, ATPlite luminescence, 48 h; series mostly up to 57.5 µM
# Summary of the method: as §2
# MKL-1 = assay: qHTS assay to identify novel small-molecules to repurpose for Merkel cell carcinoma treatment (AID 1296009); conditions: MCC and control cell lines, CellTiter-Glo viability, 72 h; series mostly up to 46 µM; note: nearly all actives have a fitted effect of over 60% in size
# Summary of the method: as §1
# MKL-2 = assay: as above; conditions: MCC and control cell lines, CellTiter-Glo viability, 72 h; activity change, negative = cytotoxicity: at 46 µM (top of the series)
# Summary of the method: as §1
# WaGa = assay: as above; conditions: MCC and control cell lines, CellTiter-Glo viability, 72 h; series mostly up to 46 µM
# Summary of the method: as §1
# MCC-13 = assay: as above; conditions: MCC and control cell lines, CellTiter-Glo viability, 72 h; series mostly up to 46 µM
# Summary of the method: as §1
# UISO = assay: as above; conditions: MCC and control cell lines, CellTiter-Glo viability, 72 h; series mostly up to 46 µM
# Summary of the method: as §1
# Es-2 = assay: Primary qHTS to identify gynecologic anti-cancer compounds using libraries of approved drugs and bioactive compounds (AID 1345084); conditions: Gynecologic cancer cell panel viability, ATPlite luminescence, 48 h; series mostly up to 57.5 µM; note: nearly all actives have a fitted effect of over 55% in size
# Summary of the method: as §2
# OV90 = assay: as above; conditions: Gynecologic cancer cell panel viability, ATPlite luminescence, 48 h; series mostly up to 57.5 µM
# Summary of the method: as §2
# PA-1 = assay: as above; conditions: Gynecologic cancer cell panel viability, ATPlite luminescence, 48 h; series mostly up to 57.5 µM
# Summary of the method: as §2
# CAOV3 = assay: as above; conditions: Gynecologic cancer cell panel viability, ATPlite luminescence, 48 h; series mostly up to 57.5 µM
# Summary of the method: as §2
# JEG-3 = assay: as above; conditions: Gynecologic cancer cell panel viability, ATPlite luminescence, 48 h; series mostly up to 57.5 µM
# Summary of the method: as §2
# HeLa = assay: as above; conditions: Gynecologic cancer cell panel viability, ATPlite luminescence, 48 h; series mostly up to 57.5 µM
# Summary of the method: as §2
# % is set by controls: 0 for no effect and ±100 for the full control effect; potency is the fitted concentration of half-maximal effect; tags give direction and shape of the fitted curve.
smiles,measurement,setting,value
CN(C)c1cc(NC(=O)CNC(C)(C)C)c(O)c2c1C[C@@H]1C[C@H]3[C@H](N(C)C)C(=O)C(C(N)=O)=C(O)[C@@]3(O)C(=O)C1=C2O,max response,HEK293,inactive: 4.51%
same,Potency,MCC-26,inactive
same,Potency,CASKI,inactive
same,Potency,SKOV3,inactive
CC(C)(C(=O)NCC(F)(F)C(F)(F)F)C(=O)N[C@@H]1C(=O)Nc2ccccc2-c2ccccc21,Potency,HEK293,"inconclusive: 37.2 µM [inhibitor, single point]"
same,Potency,MKL-1,"inconclusive: 29.6 µM [inhibitor, single point]"
same,Potency,MKL-2,"inconclusive: 33.2 µM [inhibitor, single point]"
same,Potency,WaGa,"inconclusive: 29.6 µM [inhibitor, single point]"
C=C1C(=CC=C2CCC[C@]3(C)[C@@H]([C@H](C)CCCC(C)(C)O)CC[C@@H]23)C[C@@H](O)C[C@@H]1O,Potency,HEK293,"inconclusive: 37.2 µM [inhibitor, single point]"
same,Potency,MCC-13,"inconclusive: 13.2 µM [inhibitor, partial curve, poor fit]"
same,Potency,MCC-26,"inconclusive: 23.5 µM [inhibitor, partial curve]"
same,Potency,MKL-1,active: 16.6 µM
same,Potency,MKL-2,active: 6.62 µM
same,Potency,UISO,"inconclusive: 20.9 µM [inhibitor, single point]"
O=C(CCN1CCN2CCCC2C1)N1c2ccccc2Sc2ccc(Cl)cc21 (stereo unspecified),Potency,HEK293,"inconclusive: 10.3 µM [inhibitor, single point]"
same,Potency,MKL-2,"inconclusive: 5.17 µM [inhibitor, partial curve]"
Cc1[nH]c(C=C2C(=O)Nc3ccccc32)c(C)c1CCC(=O)O,Potency,HEK293,active: 4.18 µM
same,Potency,MCC-13,"inconclusive: 5.9 µM [inhibitor, full curve]"
same,Potency,MCC-26,"inconclusive: 10.5 µM [inhibitor, partial curve]"
same,Potency,MKL-2,"inconclusive: 0.235 µM [inhibitor, full curve, poor fit]"
Nc1cc(-c2ccncc2)c[nH]c1=O,max response,HEK293,inactive: 1.99%
same,Potency,MKL-2,"inconclusive: 0.266 µM [inhibitor, full curve]"
CC(C)NCC(O)c1ccc(O)c(O)c1 (stereo unspecified),Potency,HEK293,"inconclusive: 37.2 µM [inhibitor, partial curve, poor fit] and inconclusive: 23.7 µM [inhibitor, single point]"
same,Potency,MKL-1,"inconclusive: 16.6 µM [inhibitor, partial curve] and active: 8.41 µM"
same,Potency,UISO,"inconclusive: 33.2 µM [inhibitor, single point] and inconclusive: 10.6 µM [inhibitor, partial curve]"
same,Potency,Es-2,inactive
same,Potency,OV90,"inconclusive: 25.1 µM [cytotoxic, partial curve, poor fit]"
same,Potency,PA-1,"inconclusive: 39.8 µM [cytotoxic, partial curve, poor fit]"
O=C1c2c(O)cc(O)cc2O[C@H](c2cc(O)c(O)c(O)c2)[C@H]1O,Potency,HEK293,"inconclusive: 37.2 µM [inhibitor, single point]"
same,Potency,MKL-1,"inconclusive: 26.4 µM [inhibitor, single point]"
same,Potency,MKL-2,"inconclusive: 26.4 µM [inhibitor, single point]"
CN(C)c1ccc(N=NS(=O)(=O)O)cc1,Potency,HEK293,"inconclusive: 20.4 µM [inhibitor, partial curve, poor fit]"
same,Potency,MKL-2,active: 6.44 µM
same,Potency,UISO,"inconclusive: 18.2 µM [inhibitor, partial curve]"
same,Potency,CAOV3,"inconclusive: 12.6 µM [cytotoxic, partial curve, poor fit]"
same,Potency,JEG-3,"inconclusive: 44.7 µM [cytotoxic, partial curve]"
same,Potency,OV90,"inconclusive: 15.8 µM [cytotoxic, partial curve]"
same,Potency,PA-1,"inconclusive: 35.5 µM [cytotoxic, single point]"
same,Potency,SKOV3,"inconclusive: 14.1 µM [cytotoxic, full curve, poor fit]"
C#CCN(C)Cc1ccccc1,max response,HEK293,inactive: -27.7%
same,Potency,MCC-26,inactive
same,Potency,CAOV3,inactive
same,Potency,OV90,inactive
O=C1Cc2cc(CCN3CCN(c4nsc5ccccc45)CC3)c(Cl)cc2N1,Potency,HEK293,"inconclusive: 37.2 µM [inhibitor, single point] and inconclusive: 29.1 µM [inhibitor, single point]"
same,Potency,MKL-1,"inconclusive: 26.6 µM [inhibitor, single point] and inconclusive: 26.4 µM [inhibitor, single point]"
same,Potency,UISO,active: 15 µM
same,Potency,WaGa,"inconclusive: 29.9 µM [inhibitor, single point] and inconclusive: 20.9 µM [inhibitor, partial curve]"
same,Potency,CAOV3,"inconclusive: 3.55 µM [cytotoxic, partial curve, poor fit] and inconclusive: 39.8 µM [cytotoxic, single point]"
same,Potency,OV90,"inconclusive: 12.6 µM [cytotoxic, partial curve, poor fit]"
same,Potency,SKOV3,"inconclusive: 3.55 µM [rising, full curve, poor fit]"
O=C(/C=C/c1ccccc1)NCCO,max response,HEK293,inactive: -1.9%
same,Potency,MCC-26,inactive
same,Potency,MKL-2,inactive
same,Potency,CAOV3,inactive
same,Potency,HeLa,inactive
same,Potency,OV90,inactive

# From PubChem BioAssay (NCATS)
